Source: PubChem BioAssay AID1508642 (National Center for Advancing Translational Sciences (NCATS), 2021)
In all, about 43,000 compounds went through this assay and about 200 (0.47%) were called active. Another 12% or so got no clear call; they are omitted. The call rests on the fitted dose curve; in most records, active means well fitted cell-killing curve with a large enough effect; inconclusive means small, poorly fitted or top-dose-only effect, or effect the other way; inactive means flat fitted curve, though single readings scatter. This is one part of the list.

Assay: Cell viability qHTS assay in S16 Pmp22-F2sN cells; further: nearly all actives have a fitted effect of over 65% in size
Details: S16 Pmp22-F2sN Schwann cells (luciferase reporters placed in the Pmp22 gene) viability, CellTiter-Glo, 24 h; series mostly up to 57.5 µM; activity change, negative = cytotoxicity: at the top concentration
How it was run: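 CellTiter-Glo counter-screen, qHTS, 1536-well. Cells: S16(c9) Pmp22-F2sN, 500-1,000/well in DMEM + 10% FBS. Cpd 23 nL pin transfer, 24 h, 37C/5% CO2. Read: luminescence, CCD imager.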
On the % scale 0 is the no-effect control and ±100 the full control effect.

SMILES	activity change, negative = cytotoxicity
COc1ccc(OC)c(NC(=O)CN2C(=O)c3ccccc3Sc3ccc(C(=O)N4CCCC4)cc32)c1	inactive: -10.2%
COc1ccc(N(Cc2cccs2)C(=O)Nc2ccccc2)cc1	inactive: 12.5%
Cc1cc(-c2ccc(C)c(S(=O)(=O)N(C)c3ccc(C)c(C)c3)c2)on1	inactive: -13.4%
COc1ccccc1NC(=O)Cn1c(=O)n(Cc2ccco2)c(=O)c2cccnc21	inactive: 6.3%
CCOC(=O)c1c(Oc2ccc(OC)cc2)nnc(-c2ccccc2)c1-c1ccccc1	inactive: -24.7%
NC(=O)C1(N2CCCCC2)CCN(C(=O)Nc2ccc(C(F)(F)F)cc2)CC1	inactive: -0.269%
Cc1ccc(NCc2ccccc2-c2nnc(-c3ccccc3Cl)o2)c(C)c1	inactive: -11.6%
Cc1ccc(CNS(=O)(=O)c2cc(C(=O)Nc3cccc(C(F)(F)F)c3)ccc2F)cc1	inactive: 8.31%
CCOCCCNC(=O)c1cc2c(-c3ccc(OC)c(OC)c3)nn(C)c2s1	inactive: -4.11%
COCCN1CCc2nc(SCC(=O)Nc3ccc(Br)cc3)[nH]c(=O)c2C1	inactive: 12.5%
Cc1nc2c(C(=O)NCCc3ccccc3)cnn2c(C)c1Cc1c(F)cccc1Cl	inactive: 14.7%
Cc1c2cnn(CC(=O)NCc3ccc(F)cc3)c(=O)c2c(C)n1Cc1ccccc1F	inactive: -25.5%
COc1ccc(Cl)cc1Nc1ncnc2c1c(-c1ccccc1)cn2-c1ccccc1	inactive: 13.3%
CC(C)(C)OC(=O)N1CCC(c2c(C(=O)NCc3cccs3)cnn2-c2ccc(F)cc2F)CC1	inactive: -22.7%
Cc1noc(/C=C/N(C)C)c1S(=O)(=O)N1CCCC(C(=O)Nc2ccc(F)cc2F)C1 (configuration not stated)	inactive: 2.46%
COC(=O)c1ccccc1NC(=O)CCC(=O)N1CCOc2ccccc21	inactive: 4.18%
CCN(CC)C(=O)c1sc(NC(=O)C(C)Sc2nc(-c3ccccc3)cc(C(F)(F)F)n2)c(C(=O)OC)c1C (configuration not stated)	inactive: -23.7%
CCN(c1ccccc1)c1nnc(NC(=O)Nc2cccc(Cl)c2C)s1	inactive: -24.4%
CSc1ccc(-c2nc3ncccn3c2Nc2ccc(C)c(C)c2)cc1	inactive: -22.1%
Nc1cc(=O)nc(SCC(=O)Nc2cccc(Cl)c2)n1CCc1ccccc1	inactive: 7.65%
CN(C)c1oc(/C=C/c2ccc(F)cc2)nc1C#N	inactive: 11.1%
CCCC(=O)NCC(c1ccc2c(c1)OCO2)N1CCN(c2ccccc2)CC1 (configuration not stated)	inactive: -16.4%
CCCCCOc1ccc(/C=C/C(=O)Nc2sc(C(C)=O)c(C)c2C(=O)OCC)cc1OC	inactive: 19%
CCc1nnc(NC(=O)c2nc(SCc3ccccc3C)ncc2Cl)s1	inactive: -0.258%
CCc1ccc(-n2c(=O)c3sc4ccccc4c3n(Cc3cccc(F)c3)c2=O)cc1	inactive: -7.61%
CCCNC(=O)C1CCN(c2ncnc3c2nc2n3CCCCC2)CC1	inactive: 1.22%
Cc1c(Cl)cccc1NC(=O)Cn1c(=O)nc(-c2ccccc2)c2ccccc21	inactive: 3.64%
